This note sets out measurements from ChEMBL document CHEMBL4513137, “CO-ADD screening of University of Manchester (UK) compounds”.

The list shows a part of the results. Entries with a potency or affinity are not part of this list.

For the experiment, the system named is Pseudomonas aeruginosa. Particulars: Concentration 32 ug.mL-1; ASSAY_TEST Inhibition of Bacterial Growth; detection method Absorption (OD600); MEDIA CAMHB; plate type 384well; NBS; CORNING #3640; time 18 hr.
By Inhibition is commonly meant the drop in the measured response relative to a control, in per cent. Turning to `CC(=O)c1ccc(-c2ccccc2Nc2ccccc2)cc1`, the Inhibition is reported as 28.85%.

With `O=[N+]([O-])c1cc(Cl)c(-c2ccccc2Nc2ccccc2)c(Cl)c1`, the Inhibition was determined as 45.19%.

In the case of `O=[N+]([O-])c1ccc(-c2ccccc2Nc2ccccc2)cc1C(F)(F)F`, the Inhibition is on record as 49.55%.

`Cc1cc(C)c(Nc2ccccc2-c2ccc([N+](=O)[O-])cc2)c(C)c1`: the Inhibition was -8.25%.

As to `O=[N+]([O-])c1ccc(-c2ccccc2Nc2ccccc2Br)cc1`, the Inhibition came out at 46.63%.

Regarding `COc1cc([N+](=O)[O-])ccc1-c1ccccc1Nc1ccccc1`, the Inhibition is recorded as 44.78%.

Regarding `O=[N+]([O-])c1ccc(-c2ccccc2Nc2ccccc2)cc1F`, the Inhibition is 55.36%.

In the case of `Cc1cccc(C)c1Nc1ccccc1-c1ccccc1[N+](=O)[O-]`, the Inhibition is 22.81%.

For `O=[N+]([O-])c1ccc(-c2c(Nc3ccccc3)ccc3ccccc23)cc1`, the Inhibition was 13.41%.

For the compound `Cc1ccccc1Nc1ccccc1-c1ccc([N+](=O)[O-])cc1`, the Inhibition is reported as -5.81%.

For the compound `CC[C@@H](Nc1ccccc1-c1c(Cl)cc(Br)cc1Cl)c1ccccc1`, the Inhibition was determined as 48.28%.

In the case of `Clc1cc(Br)cc(Cl)c1-c1ccccc1Nc1ccccc1`, the Inhibition came out at 32.77%.

As to `c1ccc(Nc2ccccc2-c2ncccn2)cc1`, the Inhibition is reported as 60.14%.

For the compound `COc1cccc(N(C)c2cccc(OC)c2-c2ccc([N+](=O)[O-])cc2C)c1`, the Inhibition amounted to 7.16%.

On to `O=[N+]([O-])c1ccc(-c2cccc3c2[nH]c2ccccc23)cc1`, for which the Inhibition came out at 43.72%.

Regarding `CN(c1ccccc1)c1ccccc1-c1ccc([N+](=O)[O-])cc1`, the Inhibition turned out to be 40.33%.

Consider `COc1ccc(Nc2ccccc2-c2ccc([N+](=O)[O-])cc2)cc1`, for which the Inhibition turned out to be 65.22%.

Consider `Cc1cc([N+](=O)[O-])ccc1-c1ccccc1N(C)c1ccccc1`, for which the Inhibition is reported as -8.3%.

On to `N#Cc1ccc(-c2ccccc2Nc2ccccc2)cc1`, for which the Inhibition is given as 39.97%.

Consider `COc1cccc(Nc2ccccc2)c1-c1c(Cl)cc(Br)cc1Cl`, for which the Inhibition was 61.56%.

For `O=[N+]([O-])c1ccc(-c2ccccc2Nc2ccccc2)cc1`, the Inhibition is -5.45%.

For `O=[N+]([O-])c1ccc(-c2c(Nc3ccccc3)cccc2-c2ccccc2)cc1`, the Inhibition was 19.1%.

For the compound `COc1cc([N+](=O)[O-])ccc1-c1c(Nc2ccccc2)cccc1OC`, the Inhibition is 30.66%.

In the case of `O=[N+]([O-])c1ccc(-c2ccccc2N(Cc2ccccc2)c2ccccc2)cc1`, the Inhibition was determined as 47.94%.

On to `O=[N+]([O-])c1ccc(-c2ccccc2Nc2ccccc2)c(Cl)c1`, for which the Inhibition was 46.67%.

On to `O=[N+]([O-])c1ccc2c3ccccc3n(-c3ccccc3)c2c1`, for which the Inhibition is reported as 37.57%.

In the case of `COc1cccc(Nc2ccccc2)c1-c1ccc([N+](=O)[O-])cc1`, the Inhibition worked out at 2.06%.
